Several values for one entry are separate records, joined by “and”; a condition that tells them apart may be missing. Equal entries are not always repeated. In all, about 140,000 compounds went through this assay and about 240 (0.17%) were called active. This list was built around the results that the source calls inconclusive (neither active nor inactive); the mix of calls is not that of the screen. Calls come from the whole dose curve; as a rule, active = well fitted inhibition curve with a large enough effect; inconclusive = small, poorly fitted or top-dose-only effect; inactive = no such curve, though single readings can be large or run the other way. Where the call is inconclusive, the potency comes from a doubtful curve fit.
Assay: Primary qHTS assay for inhibitors of alpha-synuclein gene (SNCA) expression; note: nearly all actives have a fitted effect of over 45% in size;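 for activity change, negative = inhibition: plate controls were DMSO cells for no effect and cell-free wells for full effect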
Settings: HEK-293 SNCA-luciferase knock-in, luminescence, 24 h; activity change, negative = inhibition: at 57.2 µM (top of the series) unless noted
Potency is the fitted concentration of half-maximal effect; tags give direction and shape of the fitted curve.

| Compound | Potency | activity change, negative = inhibition |
| --- | --- | --- |
| CCC(=O)N(CCC(c1ccccc1)c1ccc2c(c1)OCO2)Cc1ccc(OC(C)C)cc1 (stereo not given) | inconclusive: 39.8 µM [inhibitor, single point] | – |
| CCN(CC)C(=O)CCc1c(C)nn(-c2ccc(F)cc2)c1Oc1ccccc1F | inconclusive: 39.8 µM [inhibitor, single point] | – |
| Cn1c(Nc2ccc(C(F)(F)F)cc2)nc2cc(Oc3ccnc(-c4ncc(C(F)(F)F)[nH]4)c3)ccc21 | inconclusive: 1.71 µM [inhibitor, full curve, poor fit] | – |
| COc1cccc(-c2ccc(CN3CCCC(NC(=O)c4cccc(Cl)c4)C3)cc2)c1 (stereo not given) | inconclusive: 39.8 µM [inhibitor, single point] | – |
| CN1N=C(N)c2cn([C@@H]3O[C@H](COP(=O)(O)O)[C@@H](O)[C@@H]3O)c3ncnc1c23 | inconclusive: 24.1 µM [inhibitor, partial curve] | – |
| Cc1cc(C)cc(NS(=O)(=O)c2cc3c(cc2C)NC(=O)CO3)c1 | inconclusive: 10 µM [inhibitor, partial curve, poor fit] | – |
| O=[S+]([O-])(NC1CCN(Cc2cccc(-c3cccs3)c2)CC1)c1cccs1 | – | inactive: 10.2% |
| Cc1ccc(-n2ncc3c(NC4CCCCCC4)ncnc32)cc1Cl | – | inactive: 28.7% |
| CC(=O)c1ccc(N2C(=O)N(CC(=O)c3ccc(F)cc3)c3ccccc3S2(=O)=O)cc1 | inconclusive: 0.158 µM [inhibitor, partial curve, poor fit] | – |
| Cc1ccc(-n2ncc(C(=O)NCc3ccco3)c2C2CCN(C(=O)OC(C)(C)C)CC2)c(C)c1 | inconclusive: 7.94 µM [inhibitor, partial curve] | – |
| CC(C)c1noc(CC2CCN(C(=O)c3ccc4c(c3)OCO4)CC2)n1 | – | inactive: -12.1% |
| Cc1cc(C(=O)NC2CCCN(c3ccnc4ccnn34)C2)ccc1Cl (stereo not given) | – | inactive: 31.4% |
| CC(C)C[C@@H]1N[C@H](C(=O)NCc2cccnc2)Cc2c[nH]c3cccc1c23 | inconclusive: 39.8 µM [inhibitor, partial curve, poor fit] | – |
| COC(=O)c1c(NC(=O)CCCOc2cccc(C)c2)sc2c1C(C(=O)OC)CC2 (stereo not given) | inconclusive: 39.8 µM [inhibitor, single point] | – |
| CCc1ccc(CN(Cc2cn[nH]c2-c2ccc(OC)cc2)C(=O)Nc2cc(Cl)ccc2OC)cc1 | inconclusive: 39.8 µM [inhibitor, single point] | – |
| COc1ccc(OCC2(C)COc3ccc(C(=O)N4C[C@@H](C)O[C@@H](C)C4)cc3N2)cc1 (stereo not given in full) | inconclusive: 7.08 µM [inhibitor, full curve, poor fit] | – |
| O=C(NCc1cccs1)c1cc2c(s1)CCN(C(=O)c1ccc(F)cc1)C2 | inconclusive: 11.2 µM [inhibitor, partial curve, poor fit] | – |
| O=C(COc1ccc(F)cc1)N1CCC2(CC1)N=C(c1ccccc1)NC2=O | inconclusive: 11.2 µM [inhibitor, partial curve, poor fit] | – |
| O=C(CCn1ccn2nc3c(c2c1=O)CCCC3)N1CCN(c2ccc(Cl)cc2)CC1 | inconclusive: 31.6 µM [inhibitor, single point] | – |
| NC(=O)Cc1c[nH]c2ncc(-c3ccccc3Oc3ccccc3)cc12 | inconclusive: 28.2 µM [inhibitor, partial curve] | – |

| Compound | Potency | activity change, negative = inhibition |
| --- | --- | --- |
| COc1cccc(CNC(=O)[C@@H]2C[C@@H](O)CN2C2CCN(C(=O)c3ccncc3)CC2)c1 | inconclusive: 44.7 µM [inhibitor, single point] | – |
| COc1ccc(-c2noc(CC3CCN(C(=O)c4cc(F)ccc4F)CC3)n2)cc1 | inconclusive: 1.78 µM [inhibitor, partial curve, poor fit] | – |
| CCN(Cc1ccncc1)C(=O)c1cc(-c2cnc(C)nc2)nc2cc(F)ccc12 | – | inconclusive: -30.1% [inhibitor] |
| COc1cc(NC(=O)Nc2cccc(-c3ccc(N4CCOCC4)nn3)c2)cc(OC)c1 | inconclusive: 39.8 µM [inhibitor, single point] | – |
| O=c1c2nc(-c3ccccc3)ccc2ncn1-c1ccccc1 | – | inactive: 134% [at 87.6 µM] |
| Cc1nc2c(c(-c3ccc(Cl)cc3)n1)CN([S+](=O)([O-])c1ccsc1)CC2 | – | inactive: -6.72% |
| CC(C)CN1C(=O)c2ccccc2C(C(=O)Nc2nncs2)C12CCCC2 (stereo not given) | inconclusive: 5.01 µM [inhibitor, single point] | – |
| CC(C)C(=O)N1CCc2c(n(Cc3ccccc3)n(-c3ccccc3)c2=O)C1 | – | inactive: 14.9% [at 87.6 µM] |
| O=C1NCc2ccccc2CC12CCN(Cc1ccnc3ccccc13)C2 (stereo not given) | inconclusive: 39.8 µM [inhibitor, single point] | – |
| COc1ccc(C2(C(=O)N3CCCN(C)c4ccccc43)CC2)cc1 | inconclusive: 2 µM [inhibitor, full curve, poor fit] | – |
| Cc1ccc(NC(=O)Nc2ccc3c(c2)N(C)C(=O)c2ccccc2S3)c(C)c1 | inconclusive: 7.08 µM [inhibitor, single point] | – |
| CCCCn1c(=O)c(C(=O)NCC2CCCCC2)nc2cccnc21 | – | inactive: -26.4% |
| CCC(C)NC(=O)N1CC(Oc2ccc(-c3noc(C4CCOCC4)n3)cc2)C1 (stereo not given) | inconclusive: 7.08 µM [inhibitor, full curve, poor fit] | – |
| COc1ccc(CCC(=O)N2CCc3c([nH]c4ccccc34)C2c2ccc(F)cc2)cc1 (stereo not given) | – | inactive: -5.54% |
| Cc1nc2c(OCC(=O)c3ccccc3)cccn2c(=O)c1-c1cc(C)n(-c2ccc(Cl)cc2)n1 | inconclusive: 2.51 µM [inhibitor, full curve, poor fit] | – |
| COc1ccc(C(=O)N2CCCCCCNC(=O)[C@@H]3C[C@@H](c4nc(C(C)C)no4)C[C@@H]32)cc1 | inconclusive: 1.58 µM [inhibitor, partial curve, poor fit] | – |
| COc1ccc(CN2C=C(C(=O)OCc3nc(C4CCCCC4)no3)C(C)=NS2(=O)=O)cc1 | – | inactive: -30.1% |
| Cc1ccc2nccc(C(=O)N3CCn4nc(C(=O)N5CCCC5)cc4C3)c2c1 | inconclusive: 2 µM [inhibitor, full curve, poor fit] | – |
| Cc1nc2cccnc2n1-c1cccc(C(=O)N2CCN(c3ccc(Cl)cc3)CC2)c1 | inconclusive: 15.8 µM [inhibitor, partial curve, poor fit] | – |
| O=[S+]1([O-])NCC2(CCCN(Cc3ccc(C(F)(F)F)cc3)C2)Oc2ncccc21 (stereo not given) | inconclusive: 44.7 µM [inhibitor, partial curve, poor fit] | – |

| Compound | Potency | activity change, negative = inhibition |
| --- | --- | --- |
| CC(C)C(=O)N1Cc2ccccc2CC2(CCCN2C)C1 (stereo not given) | – | inactive: 8.14% [at 87.6 µM] |
| COc1cccc(C(O)c2nc(C(=O)Nc3nc(C)cs3)c(C)o2)c1 (stereo not given) | – | inactive: 2.7% [at 87.6 µM] |
| O=C(NCc1cccs1)c1nc(-c2ccccc2)c2ccccn12 | inconclusive: 1 µM [inhibitor, full curve, poor fit] | – |
| CN1C(=O)c2ccccc2Sc2ccc(NC(=O)c3ccccc3F)cc21 | inconclusive: 15.8 µM [inhibitor, single point] | – |
| COc1ccc(F)cc1-c1ncc2c(n1)OCCN(c1cccc(C(F)(F)F)c1)C2=O | inconclusive: 25.1 µM [inhibitor, partial curve, poor fit] | – |
| Cn1cc(CC(=O)N2CCCc3ncc(C(=O)NCc4ccc(F)cc4)cc32)c2ccccc21 | inconclusive: 39.8 µM [inhibitor, single point] | – |
| COc1ccc(C2CC(=O)N(CC(=O)Nc3cc(C)ccc3C)c3ccccc3S2)cc1 (stereo not given) | inconclusive: 25.1 µM [inhibitor, single point] | – |
| CC(=O)N1CCN(C(=O)c2cc(-c3ccc(Cl)cc3Cl)c3nncn3n2)CC1 | inconclusive: 4.47 µM [inhibitor, partial curve, poor fit] | – |
| CN(Cc1noc2c1CCCC2)Cc1nnc(C2CC(N)C2)n1C (stereo not given) | inconclusive: 39.8 µM [inhibitor, single point] | – |
| COc1ccccc1-c1cc(C(=O)NCc2cccs2)nn2cnnc12 | inactive and inconclusive: 2.24 µM [inhibitor, full curve] | – |
| CC(C)(C)OC(=O)N1CCC(c2c(C(=O)N3CCC(c4ccccc4)C3)cnn2-c2cccc(Cl)c2)CC1 (stereo not given) | inconclusive: 39.8 µM [inhibitor, single point] | – |
| CN1CCN(c2ncc3nc(-c4cccc(C#N)c4)c(=O)n(Cc4ccc(F)cc4)c3n2)CC1 | inconclusive: 17.8 µM [inhibitor, partial curve, poor fit] | – |
| Cc1noc(C)c1[S+](=O)([O-])NCCNC(=O)c1cccc(-c2ccsc2)c1 | inconclusive: 17.8 µM [inhibitor, single point] | – |
| O=C(NCC1CCN(Cc2cccc(Cl)c2)CC1)Nc1cc(Cl)ccc1Cl | inconclusive: 39.8 µM [inhibitor, single point] | – |
| CCn1ccc2cc(S(=O)(=O)N3CCCN(C(=O)Nc4cccc(Cl)c4)CC3)ccc21 | inconclusive: 39.8 µM [inhibitor, single point] | – |
| COCCn1c(=O)c(C(=O)NCC(F)F)nc2cccnc21 | – | inactive: -7.84% [at 87.6 µM] |
| CC1=C[C@@H](CNC(=O)CCC(=O)O)[C@H](C(C)C)C[C@H]1Cc1nc2ccccc2[nH]1 | – | inactive: -14.6% [at 87.6 µM] |
| O=C(Nc1ccc(OC(F)(F)F)cc1)N1CCOC[C@H](Oc2ccccc2)C1 | inconclusive: 35.5 µM [inhibitor, single point] | – |
| COc1ccc(N(C)C(=O)c2cn(C3CCCCC3)c(=O)c3c2c2ccccc2n3C)cc1 | inconclusive: 28.2 µM [inhibitor, single point] | – |
| COc1cncc(-c2cc(C(=O)NCc3cccnc3)c3c(c2)N(C)CCO3)c1 | inconclusive: 5.01 µM [inhibitor, full curve] | – |

— PubChem BioAssay AID1671194 (National Center for Advancing Translational Sciences (NCATS), 2021)
